Data published in PubChem BioAssay AID624202 (National Center for Advancing Translational Sciences (NCATS), 2012).
Screen size: about 380,000 compounds; about 4,000 (1.1%) were called active. This list was built around the results that the source calls inconclusive (neither active nor inactive); the mix of calls is not that of the screen. Calls follow the shape of the dose curve; as a rule, active = well fitted activation curve with a large enough effect; inconclusive = small, poorly fitted or top-dose-only effect; inactive = no such curve, though single readings can be large or run the other way. Potencies of inconclusive entries are doubtful fits and often do not repeat.

Assay: qHTS Assay to Identify Small Molecule Activators of BRCA1 Expression; also: nearly all actives have a fitted effect of over 80% in size
Conditions: MCF7-BRCA1-FFLuc reporter, luminescence, 48 h; activation: at 46.1 µM (top of the series), scaled: vehicle 0%, 10 µM genistein 100% unless noted
How it was run: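 MCF7-BRCA1-FFLuc, 2000 cells/well; 2 h attach, 37 °C/5% CO2; compound 48 h; luciferase substrate 15 min; luminescence end-point. Norm. to genistein 10 microM max activation and DMSO; concentration-response curves fitted.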
Potency is read from the fitted curve at half-maximal effect; tags tell the direction and shape of the fitted curve.

Row | SMILES | activation | Potency
1 | O=C(c1ccco1)n1nc(-c2ccccc2)nc1NCc1ccccc1Cl | inactive: -0.98% | –
2 | Cc1ccc(-c2nc(-c3ccccn3)no2)cc1 | inconclusive: -96.5% [activator] | –
3 | Nc1n[nH]c(N)c1N=Nc1ccccc1F | – | inconclusive: 31.6 µM [activator, single point]
4 | Cc1cc(N2Cc3ccccc3C2)ccc1C=O | – | inconclusive: 3.55 µM [activator, full curve, poor fit]
5 | O=C(/C=C\c1ccco1)c1ccc(NC(=O)c2ccco2)cc1 | – | active: 1.78 µM
6 | CC1(C)Cc2c(sc(NC(=O)C(=O)NCCCN3CCOCC3)c2C#N)CO1 | inactive: -6.29% | –
7 | C/C(=N\OCc1ccc(C#N)cc1)c1ccccc1 | – | inconclusive: 35.5 µM [activator, partial curve, poor fit]
8 | O=C(Cn1nnc(-c2ccccc2)n1)N1CCCCC1 | inactive: 83.6% | –
9 | CNC(CC(C)C)C(=O)NC1C(=O)NC(CC(N)=O)C(=O)NC2C(=O)NC3C(=O)NC(C(=O)NC(C(=O)O)c4cc(O)cc(O)c4-c4cc3ccc4O)C(O)c3ccc(c(Cl)c3)Oc3cc2cc(c3OC2OC(CO)C(O)C(O)C2OC2C[C@](C)(N)C(O)C(C)O2)Oc2ccc(cc2Cl)C1O (stereo partly drawn) | inactive: 11.4% | –
10 | CC(C)(C)OC(=O)N/N=C/c1ccc(Br)cc1 | – | active: 3.55 µM
11 | O=C(Nc1ccc2c(c1)CCC2)c1ccc(F)cc1 | – | inconclusive: 0.631 µM [activator, full curve, poor fit]
12 | COc1ccc(CNc2ncccc2[N+](=O)[O-])cc1 | – | inconclusive: 20 µM [activator, partial curve, poor fit]
13 | FC(F)(F)c1cnc(-c2cnc(-c3ccncc3)nc2)c(Cl)c1 | – | inconclusive: 1.26 µM [activator, full curve, poor fit]
14 | Cn1c(CNc2ccc(Br)cc2)nc2ccccc21 | – | inconclusive: 3.16 µM [activator, partial curve, poor fit]
15 | O=C1Nc2ccccc2Oc2cc(Oc3cccc(Cl)c3)ccc21 | inactive: -18.7% | –
16 | CCNCc1nc2cc(OC)c(OC)cc2c(=O)[nH]1 | inactive: -0.335% | –
17 | Cc1ccc(Sc2ccc(N3CCCC(C(=O)Nc4ccc(Br)cc4)C3)nn2)cc1 (stereo not drawn) | inactive: 8.17% | –
18 | Cc1ccc(-c2nc3cc(NC(=O)C(C)C)ccc3o2)cc1C | inconclusive: -40.9% [activator] | –
19 | C/C(=N\NC(=O)c1ccn(C)n1)c1cccc(NC(=O)c2ccc(C)s2)c1 | – | active: 11.2 µM
20 | Cc1ccc(C)c(OCc2cc(C(=O)N3CC[C@@H]4CCCC[C@H]4C3)no2)c1 | – | inconclusive: 31.6 µM [activator, single point]
21 | Cc1ccnc(Nc2ccc(CCO)cc2)n1 | – | inconclusive: 7.08 µM [activator, partial curve, poor fit]
22 | COc1ccc(F)cc1-c1cc(C(=O)Nc2cccnc2)[nH]n1 | – | inconclusive: 12.6 µM [activator, single point]
23 | O=C(Nc1cccc([N+](=O)[O-])c1)N1CCc2ccccc2C1 | – | active: 10 µM
24 | COc1ccc(-c2cc(C(=O)N3CCCCC3)no2)cc1OC | – | inconclusive: 8.91 µM [activator, partial curve, poor fit]
25 | CC(=O)c1ccc(OCc2cc(C(=O)NC(C)CCn3cccn3)no2)cc1 (stereo not drawn) | – | inconclusive: 35.5 µM [activator, single point]

Row | SMILES | activation | Potency
26 | CCCSc1nnc(Nc2ccccc2C)s1 | – | inconclusive: 7.94 µM [activator, partial curve, poor fit]
27 | C(=N\N1CCN(c2ccccc2)CC1)/c1ccccc1 | – | inconclusive: 15.8 µM [activator, partial curve, poor fit]
28 | COC(=O)c1ccc(NC(=O)Nc2ccccc2C)cc1 | – | inconclusive: 14.1 µM [activator, partial curve, poor fit]
29 | CC(=O)c1ccc(NC(=O)Nc2ccc3snnc3c2)cc1 | – | inconclusive: 11.2 µM [activator, partial curve, poor fit]
30 | O=C(CSc1nc2ncccc2[nH]1)c1ccc2c(c1)OCO2 | – | inconclusive: 20 µM [activator, partial curve, poor fit]
31 | O=C(N/N=C/C(Cl)=C/c1ccccc1)c1ccccc1F | – | active: 10 µM
32 | Fc1cccc(Cl)c1CN1CCN(c2nc3ccccc3s2)CC1 | – | inconclusive: 2.24 µM [activator, full curve, poor fit]
33 | Cc1ccc2c(c1)C(c1ccccc1)N(C(=O)c1ccccc1)CC(=O)N2 (stereo not drawn) | inactive: -2.53% | –
34 | CCOC(=O)c1ccc(-c2ccc(/C=N/NC(=O)c3cncc(Br)c3)o2)cc1 | – | inconclusive: 2.24 µM [activator, full curve, poor fit]
35 | COc1ccccc1/C=C/C1=NC(=C\N(C)C)/C(=O)O1 | – | inconclusive: 10 µM [activator, partial curve, poor fit]
36 | Nc1ccc(C(=O)Nc2nc3ccccc3s2)cc1 | inconclusive: 54.3% [activator] | –
37 | COc1ccc(CNC(=O)Nc2cccc(Cl)c2)cc1 | – | active: 7.08 µM
38 | CCOC(=O)c1ccc(N2C(=O)c3[nH]nc(-c4ccc(C)cc4)c3C2c2ccc(O)cc2)cc1 (stereo not drawn) | inactive: -68.2% | –
39 | Cc1ccc(NC(=O)CC2SCCNC2=O)cc1Cl (stereo not drawn) | – | inconclusive: 14.1 µM [activator, partial curve, poor fit]
40 | O=Cc1cccc(OCc2cccc3ccccc23)c1 | – | inconclusive: 10 µM [activator, partial curve, poor fit]
41 | C(=NN1CCCCCC1)c1ccc2c(c1)OCO2 | – | inconclusive: 2 µM [activator, full curve, poor fit]
42 | O=C(CNC(=O)c1ccccc1)OCC(=O)c1ccccc1 | inactive: -4.29% | –
43 | Cc1ccc(N(C)C(=O)CC(C)S(=O)(=O)c2ccc3c(c2)NC(=O)CO3)cc1 (stereo not drawn) | inactive: 6.31% | –
44 | O=[n+]1cc(-c2cc3ccccc3o2)n([O-])c2c1CCCC2 | – | inconclusive: 14.1 µM [activator, partial curve, poor fit]
45 | Cc1cc(/C=C2/C(=O)N(C)C(=S)N2C)c(C)n1C1CC1 | – | active: 11.2 µM
46 | CCCCC(=O)N1CCCC(c2nc(-c3cccc(OC)c3)no2)C1 (stereo not drawn) | – | inconclusive: 12.6 µM [activator, partial curve, poor fit]
47 | CCOC(=O)c1ccc(N/C=C/C(=O)c2ccccc2)cc1 | – | active: 12.6 µM
48 | CCC(=O)N1CCC(c2ccc(OC)cc2)=N1 | – | active: 11.2 µM
49 | COCC(=O)N(C)c1nnc(-c2ccc([N+](=O)[O-])cc2)s1 | – | inconclusive: 17.8 µM [activator, partial curve, poor fit]
50 | Cc1ccc(-c2csc(NC(=O)Cc3ccc(F)cc3)n2)o1 | inactive: 29.4% | –

Row | SMILES | activation | Potency
51 | COc1ccccc1-c1cnn2c(NCc3ccccc3)cc(C)nc12 | – | inconclusive: 35.5 µM [activator, single point]
52 | COc1ccc(/C(C#N)=C/c2ccccn2)cc1 | – | active: 2.82 µM
53 | Cn1c(NCc2cccs2)nc2ccccc21 | – | inconclusive: 10 µM [activator, partial curve, poor fit]
54 | COc1cc2ccccc2nn1 | inactive: -13.6% | –
55 | COc1ccc(-c2ccc(C(=O)Nc3ccc(Cl)cc3)c3occc23)c(C)c1 | – | inconclusive: 0.891 µM [activator, full curve, poor fit]
56 | O=c1c2ccccc2nnn1COc1cccc(Cl)c1 | – | inconclusive: 12.6 µM [activator, partial curve, poor fit]
57 | Cn1c(C(=O)NCC2CCCO2)cc2oc3ccccc3c21 (stereo not drawn) | – | active: 3.55 µM
58 | Cc1ccccc1C(=O)Nn1cnc2ccccc2c1=O | – | inconclusive: 31.6 µM [activator, single point]
59 | COc1ccc(C(=O)CC(=O)c2ccc(C)cc2)c(O)c1 | – | inconclusive: 11.2 µM [activator, partial curve, poor fit]
60 | CCc1cc2c(=O)n3c(nc2s1)-c1[nH]c2ccc(OC)cc2c1CC3 | – | inconclusive: 10 µM [activator, partial curve, poor fit]
61 | CN(C)c1ccc(C(C(=O)NCC2CCCO2)N(Cc2ccccc2)C(=O)c2snc(C(N)=O)c2N)cc1 (stereo not drawn) | inactive: -9.93% | –
62 | CCCn1c(=O)c2ccccc2n2c(SCCOc3ccccc3F)nnc12 | inactive: -6.73% | –
63 | O=C(N/N=C/C(Br)=C\c1ccccc1)c1cccs1 | – | inconclusive: 2.24 µM [activator, full curve, poor fit]
64 | COc1cccc(Nc2nc3ccc(OC)cc3s2)c1 | – | active: 4.47 µM
65 | C/C(=N\Nc1ccccn1)c1ccc(N2CCOCC2)cc1 | – | active: 4.47 µM
66 | O=C(NCc1ccccn1)c1cc(-c2ccccc2)on1 | – | inconclusive: 25.1 µM [activator, partial curve, poor fit]
67 | CC(=O)c1ccc(Nc2nc(C)cc(C)n2)cc1 | – | inconclusive: 7.94 µM [activator, partial curve, poor fit]
68 | N#Cc1ccccc1-c1ccccc1C(=O)N1CCCCC1 | inactive: -1.16% | –
69 | CCC(=O)Nc1cc(C)c(NC(=O)c2ccccc2OC)cn1 | – | inconclusive: 35.5 µM [activator, single point]
70 | O=C(CSc1nc(-c2ccccc2)ns1)N1CCOCC1 | – | active: 3.98 µM
71 | COc1ccccc1-c1noc(-c2cccnc2)n1 | – | inconclusive: 28.2 µM [activator, single point]
72 | COc1cc2c(c(OC)c1OC)-c1ccc(SC)c(=O)cc1C(NC(=O)c1ccccc1)CC2 (stereo not drawn) | inconclusive: -82.4% [activator] | –
73 | S=c1nc(-c2ccccc2)oc2c1CCCC2 | – | inconclusive: 12.6 µM [activator, partial curve, poor fit]
